# Experimental data as given in the antibiotic and cytotoxicity screens of Wong et al. (2023).
# Some of the results follow.
# System: HSkMC (human skeletal muscle cells)
# Experiment: cytotoxicity call (relative viability < 0.9)
# Details: 10 µM
row,Compound,cytotoxicity call
1,C[C@H](CO)N1C[C@H](C)[C@H](CN(C)S(C)(=O)=O)Oc2ccc(NC(=O)C3CCCCC3)cc2CC1=O,inactive
2,C[C@H]1CN([C@@H](C)CO)C(=O)Cc2cc(NC(=O)CCN3CCOCC3)ccc2O[C@H]1CN(C)Cc1ccncc1,inactive
3,CCCC1OC2CC3C4CCC5=CC(=O)C=CC5(C)C4C(O)CC3(C)C2(C(=O)CO)O1 (stereo unspecified),inactive
4,C[C@H]1CN([C@@H](C)CO)C(=O)c2cc(NC(=O)Nc3cccc4ccccc34)ccc2O[C@@H]1CN(C)Cc1ccccc1,inactive
5,COc1cc(/C=C/C(=O)N(C)CCN(C)C(=O)/C=C/c2cc(OC)c(OC)c(OC)c2)cc(OC)c1OC,inactive
6,O=C(O)C1(c2cccs2)CCCC1,inactive
7,Cn1c(=O)c2c(ncn2C[C@@H](O)COc2ccccc2)n(C)c1=O,inactive
8,COc1cccc(-c2cccc(-c3nc(C(=O)N[C@@H]4CCN(Cc5ccccc5)C4)cc4c3[C@H](CCO)N(S(=O)C(C)(C)C)C4)c2)c1 (stereo partly specified),inactive
9,COCC(=O)N1C[C@@H](C)[C@@H](OC)CN(C)C(=O)c2ccc(NC(=O)Nc3cccc(F)c3)cc2OC[C@@H]1C,inactive
10,C/C=C/c1cccc(-c2nc(C(=O)NCc3ccccc3)cc3c2[C@@H](CCO)N([S@](=O)C(C)(C)C)C3)c1,inactive
11,C[C@@H]1CCCCO[C@H](CN(C)Cc2ccncc2)[C@H](C)CN([C@@H](C)CO)C(=O)c2cc(NC(=O)Nc3ccc(F)cc3)ccc2O1,inactive
